Measurements taken from publication PMC10641269.
These are yes or no findings as the source states them, for the method shown. Some entries that bind do so weakly or less than the wild type. Tags and fused reporters may be left off the sequences shown.

The chains behind the UniProt entries cited, without tags or fusion partners.
UniProt Q64JB6: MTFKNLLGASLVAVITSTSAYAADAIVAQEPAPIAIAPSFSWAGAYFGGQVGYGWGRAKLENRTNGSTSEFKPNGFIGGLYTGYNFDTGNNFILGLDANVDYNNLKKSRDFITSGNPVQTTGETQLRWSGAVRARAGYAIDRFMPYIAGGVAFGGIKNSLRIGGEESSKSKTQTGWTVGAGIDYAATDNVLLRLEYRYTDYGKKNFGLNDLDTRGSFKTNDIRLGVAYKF
UniProt Q99836: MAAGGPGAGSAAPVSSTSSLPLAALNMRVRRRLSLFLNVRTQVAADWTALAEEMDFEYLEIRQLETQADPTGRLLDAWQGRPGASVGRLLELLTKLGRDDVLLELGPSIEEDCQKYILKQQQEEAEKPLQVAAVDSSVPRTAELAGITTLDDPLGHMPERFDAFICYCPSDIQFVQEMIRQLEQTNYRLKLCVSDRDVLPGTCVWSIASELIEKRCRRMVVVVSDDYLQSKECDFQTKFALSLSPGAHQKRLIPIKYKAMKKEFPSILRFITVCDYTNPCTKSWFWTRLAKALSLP
UniProt Q86XR7: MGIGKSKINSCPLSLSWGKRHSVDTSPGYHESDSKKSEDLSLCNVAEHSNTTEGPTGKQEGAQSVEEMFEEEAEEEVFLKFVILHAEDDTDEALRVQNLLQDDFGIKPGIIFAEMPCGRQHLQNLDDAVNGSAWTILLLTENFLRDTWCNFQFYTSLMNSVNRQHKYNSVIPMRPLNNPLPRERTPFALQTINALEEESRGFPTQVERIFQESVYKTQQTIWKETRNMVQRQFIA
UniProt O60603: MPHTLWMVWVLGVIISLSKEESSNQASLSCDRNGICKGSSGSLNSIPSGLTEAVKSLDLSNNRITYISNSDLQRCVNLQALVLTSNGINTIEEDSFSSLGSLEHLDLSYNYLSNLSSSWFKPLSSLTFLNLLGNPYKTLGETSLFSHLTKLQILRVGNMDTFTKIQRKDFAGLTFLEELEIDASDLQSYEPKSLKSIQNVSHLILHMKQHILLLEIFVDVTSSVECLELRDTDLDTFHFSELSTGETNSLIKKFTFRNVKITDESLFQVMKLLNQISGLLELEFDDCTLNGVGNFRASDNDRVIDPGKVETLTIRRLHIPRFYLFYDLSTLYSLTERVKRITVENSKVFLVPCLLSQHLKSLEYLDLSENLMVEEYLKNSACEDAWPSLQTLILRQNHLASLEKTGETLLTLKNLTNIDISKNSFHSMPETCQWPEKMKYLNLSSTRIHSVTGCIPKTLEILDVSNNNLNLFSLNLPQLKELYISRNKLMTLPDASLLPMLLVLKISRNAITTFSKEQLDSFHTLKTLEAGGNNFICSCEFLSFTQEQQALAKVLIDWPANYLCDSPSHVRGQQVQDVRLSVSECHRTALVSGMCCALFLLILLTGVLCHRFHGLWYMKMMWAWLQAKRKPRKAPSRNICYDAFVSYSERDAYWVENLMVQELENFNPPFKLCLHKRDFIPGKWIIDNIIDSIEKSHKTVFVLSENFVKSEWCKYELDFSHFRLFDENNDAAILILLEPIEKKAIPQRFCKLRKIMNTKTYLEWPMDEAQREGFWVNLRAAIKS
UniProt P58753: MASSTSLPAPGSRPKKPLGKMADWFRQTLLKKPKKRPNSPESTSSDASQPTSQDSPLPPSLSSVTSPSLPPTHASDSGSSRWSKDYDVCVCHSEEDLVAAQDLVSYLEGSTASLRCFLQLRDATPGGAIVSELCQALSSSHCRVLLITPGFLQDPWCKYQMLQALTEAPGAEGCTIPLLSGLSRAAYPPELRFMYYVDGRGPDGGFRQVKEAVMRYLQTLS
UniProt Q8IUC6: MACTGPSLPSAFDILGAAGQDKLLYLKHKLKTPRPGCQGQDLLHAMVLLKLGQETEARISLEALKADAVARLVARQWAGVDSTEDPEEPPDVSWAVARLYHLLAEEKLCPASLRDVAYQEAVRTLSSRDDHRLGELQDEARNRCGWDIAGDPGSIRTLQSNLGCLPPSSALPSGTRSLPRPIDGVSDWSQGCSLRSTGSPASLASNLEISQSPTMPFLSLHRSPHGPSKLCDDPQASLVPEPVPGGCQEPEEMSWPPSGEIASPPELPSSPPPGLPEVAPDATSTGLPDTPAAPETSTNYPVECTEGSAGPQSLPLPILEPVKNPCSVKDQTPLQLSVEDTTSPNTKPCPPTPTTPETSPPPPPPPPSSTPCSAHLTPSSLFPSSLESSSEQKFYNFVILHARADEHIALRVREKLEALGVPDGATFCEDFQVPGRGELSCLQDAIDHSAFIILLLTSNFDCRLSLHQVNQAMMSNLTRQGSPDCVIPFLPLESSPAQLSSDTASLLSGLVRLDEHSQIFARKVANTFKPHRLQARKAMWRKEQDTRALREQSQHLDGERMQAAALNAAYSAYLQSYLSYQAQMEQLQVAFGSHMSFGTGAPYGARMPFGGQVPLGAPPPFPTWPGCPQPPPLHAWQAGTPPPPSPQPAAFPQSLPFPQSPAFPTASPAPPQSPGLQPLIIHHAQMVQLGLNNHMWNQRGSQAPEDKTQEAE

B1: TLR9 fused with the DNA activation domain (prey) (receptor, UniProt Q9NR96 1-1032)
chain: MGFCRSALHPLSLLVQAIMLAMTLALGTLPAFLPCELQPHGLVNCNWLFLKSVPHFSMAAPRGNVTSLSLSSNRIHHLHDSDFAHLPSLRHLNLKWNCPPVGLSPMHFPCHMTIEPSTFLAVPTLEELNLSYNNIMTVPALPKSLISLSLSHTNILMLDSASLAGLHALRFLFMDGNCYYKNPCRQALEVAPGALLGLGNLTHLSLKYNNLTVVPRNLPSSLEYLLLSYNRIVKLAPEDLANLTALRVLDVGGNCRRCDHAPNPCMECPRHFPQLHPDTFSHLSRLEGLVLKDSSLSWLNASWFRGLGNLRVLDLSENFLYKCITKTKAFQGLTQLRKLNLSFNYQKRVSFAHLSLAPSFGSLVALKELDMHGIFFRSLDETTLRPLARLPMLQTLRLQMNFINQAQLGIFRAFPGLRYVDLSDNRISGASELTATMGEADGGEKVWLQPGDLAPAPVDTPSSEDFRPNCSTLNFTLDLSRNNLVTVQPEMFAQLSHLQCLRLSHNCISQAVNGSQFLPLTGLQVLDLSHNKLDLYHEHSFTELPRLEALDLSYNSQPFGMQGVGHNFSFVAHLRTLRHLSLAHNNIHSQVSQQLCSTSLRALDFSGNALGHMWAEGDLYLHFFQGLSGLIWLDLSQNRLHTLLPQTLRNLPKSLQVLRLRDNYLAFFKWWSLHFLPKLEVLDLAGNQLKALTNGSLPAGTRLRRLDVSCNSISFVAPGFFSKAKELRELNLSANALKTVDHSWFGPLASALQILDVSANPLHCACGAAFMDFLLEVQAAVPGLPSRVKCGSPGQLQGLSIFAQDLRLCLDEALSWDCFALSLLAVALGLGVPMLHHLCGWDLWYCFHLCLAWLPWRGRQSGRDEDALPYDAFVVFDKTQSAVADWVYNELRGQLEECRGRWALRLCLEERDWLPGKTLFENLWASVYGSRKTLFVLAHTDRVSGLLRASFLLAQQRLLEDRKDVVVLVILSPDGRRSRYVRLRQRLCRQSVLLWPHQPSGQRSFWAQLGMALTRDNHHFYNRNFCQGPTAE

These molecules were tested against Omp25d fused with the GAL4 DNA-binding domain (pBD-Omp25d, bait) (B. neotomae) (UniProt Q64JB6) (assay: two-hybrid).

Molecule	binding
MYD88 fused with the DNA activation domain (prey) (from UniProt Q99836 1-296)	no binding
TRAM fused with the DNA activation domain (prey) (from UniProt Q86XR7 1-235)	binds
TLR2 fused with the DNA activation domain (prey) (from UniProt O60603 1-784) (receptor)	binds
TIRAP fused with the DNA activation domain (prey) (from UniProt P58753 1-221)	binds
TRIF fused with the DNA activation domain (prey) (from UniProt Q8IUC6 1-712)	binds
B1	binds
